Data: a collection of fitness landscapes (doi:10.1038/s41467-024-54723-y)
Whole data set: some 18,000 sequences, median “TetR repression strength (sort-seq, GFP reporter)” near 0.23, cut for the highest 2% near 0.68. The list shows a part of the results.

target: TetR (class B, Tn10) (UniProt P04483); assay: TetR repression strength (sort-seq, GFP reporter) (relative to tetO2 = 1); higher = stronger repression; details: E. coli
How it was run: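 Escherichia coli SIG10-MAX cells carried a low-copy plasmid library in which eight operator positions were randomized between a constitutive promoter and sfGFP, and TetR was expressed constitutively. After 5 h of growth at 37 °C in LB with 50 µg/mL chloramphenicol, 10^6 cells were FACS-sorted into 13 fluorescence bins, and each bin was Illumina-sequenced. Repression strength was the top bin index plus one minus the read-weighted mean bin, divided by the value for the unaltered operator. Across three independent transformations, only library members with ≥30 reads in every replicate and a CV ≤0.5 were averaged.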

UniProt P04483, sequence (P04483 whole entry): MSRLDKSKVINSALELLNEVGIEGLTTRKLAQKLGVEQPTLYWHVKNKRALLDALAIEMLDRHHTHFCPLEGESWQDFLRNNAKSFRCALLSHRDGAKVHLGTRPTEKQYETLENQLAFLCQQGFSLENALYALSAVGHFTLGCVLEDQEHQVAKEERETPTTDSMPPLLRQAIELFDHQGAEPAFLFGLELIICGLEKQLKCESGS

Sequence | TetR repression strength
TCCCGTTTAGTCATTGAGA | 0.281
TCCCGCGTAGTTCGAGAGA | 0.146
TCCCATAAAGTGGTGGAGA | 0.241
TCCCCTCGAGTGATTGAGA | 0.244
TCCCACCGAGTGTGCGAGA | 0.194
TCCCTACGAGTCCTCGAGA | 1.14
TCCCGAGAAGTCAGAGAGA | 0.212
TCCCATGGAGTTGGTGAGA | 0.227
TCCCCATTAGTGCACGAGA | 0.187
TCCCGTCTAGTGTTGGAGA | 0.132
TCCCTAAGAGTATAGGAGA | 0.338
TCCCCGAAAGTGACCGAGA | 1.21
TCCCGCAGAGTATGTGAGA | 0.171
TCCCCGGAAGTATGGGAGA | 0.228
TCCCACGAAGTAGGGGAGA | 0.104
TCCCAATGAGTGATAGAGA | 0.685
TCCCGGGCAGTCTGAGAGA | 0.179
TCCCCACTAGTTGTTGAGA | 0.294
TCCCGATGAGTCGCTGAGA | 0.0346
TCCCTGTTAGTGCTCGAGA | 1.15
TCCCAGTAAGTTAGGGAGA | 0.136
TCCCGCACAGTTCTGGAGA | 0.187
TCCCCCTTAGTTAACGAGA | 0.349
TCCCCGCGAGTCGGTGAGA | 0.118
TCCCCGTCAGTGCCTGAGA | 0.436
TCCCGGGGAGTGTTAGAGA | 0.247

Sequence | TetR repression strength
TCCCTCGGAGTGTGGGAGA | 0.27
TCCCCGCTAGTTGTGGAGA | 0.132
TCCCGAATAGTGTACGAGA | 0
TCCCATATAGTTACGGAGA | 0.112
TCCCTCCAAGTTGCTGAGA | 0.207
TCCCGCCAAGTTAGCGAGA | 0.296
TCCCGCAGAGTGAAGGAGA | 0.396
TCCCCCCCAGTAAGCGAGA | 0.291
TCCCTTCGAGTGCTGGAGA | 0.513
TCCCCACAAGTCGCTGAGA | 0.347
TCCCGTGGAGTGCTAGAGA | 0.292
TCCCGGTGAGTGGGAGAGA | 0.238
TCCCGTGAAGTGTTGGAGA | 0.294
TCCCTCCGAGTCTGGGAGA | 0.233
TCCCATTAAGTGGAGGAGA | 0.573
TCCCCGGGAGTGAGGGAGA | 0.13
TCCCAAAAAGTTCAGGAGA | 0.239
TCCCTTGTAGTATTAGAGA | 0.283
TCCCGGGGAGTGCTAGAGA | 0.198
TCCCGGGGAGTGGAAGAGA | 0.175
TCCCTATCAGTACCTGAGA | 0.867
TCCCACCCAGTTAGGGAGA | 0.269
TCCCCGTAAGTCGCGGAGA | 0.207
TCCCTCGGAGTGCATGAGA | 0.122
TCCCACCGAGTATCAGAGA | 0.277
TCCCTTGAAGTCAGTGAGA | 0.236

Sequence | TetR repression strength
TCCCGCAGAGTGACTGAGA | 0.248
TCCCAATGAGTGATCGAGA | 0.329
TCCCTGACAGTATATGAGA | 0.149
TCCCTTGTAGTCTGAGAGA | 0.283
TCCCATTGAGTAGTCGAGA | 0.244
TCCCTATTAGTAGCTGAGA | 0.207
TCCCTACGAGTACTCGAGA | 0.207
TCCCAGGCAGTGTCAGAGA | 0.2
TCCCAATAAGTGTGCGAGA | 0.242
TCCCAGCGAGTATCGGAGA | 0.447
TCCCGTAGAGTACTAGAGA | 0.353
TCCCTACGAGTTGGTGAGA | 0.02
TCCCAAAAAGTTTGTGAGA | 0.273
TCCCATTCAGTCGCAGAGA | 0.291
TCCCTGCAAGTCGTCGAGA | 0.434
TCCCTAAGAGTGGACGAGA | 0.329
TCCCGGGTAGTGGTGGAGA | 0.277
TCCCGCAGAGTAACAGAGA | 0.304
TCCCGGTGAGTCCAAGAGA | 0.367
TCCCGCTTAGTGCTGGAGA | 0.102
TCCCTACGAGTATGGGAGA | 0.0752
TCCCAACTAGTGATGGAGA | 0.165
TCCCAGGCAGTATTTGAGA | 0.27
TCCCACCTAGTCTGGGAGA | 0.201
TCCCTGCCAGTGAACGAGA | 0.276
TCCCATGAAGTGAGCGAGA | 0.255

Sequence | TetR repression strength
TCCCAAGGAGTGGCAGAGA | 0.228
TCCCCTGAAGTCTAAGAGA | 0.207
TCCCTGGGAGTGGTGGAGA | 0.188
TCCCTTGTAGTCCGGGAGA | 0.387
TCCCCATAAGTGTACGAGA | 0.319
TCCCATGTAGTCTGGGAGA | 0.403
TCCCTAAAAGTTGGTGAGA | 0.259
TCCCGCCTAGTTGGAGAGA | 0.272
TCCCCATTAGTAGATGAGA | 0.278
TCCCCTTCAGTAGGCGAGA | 0.244
TCCCTACAAGTCTGGGAGA | 0.31
TCCCTCGGAGTGGTCGAGA | 0.217
TCCCCGCCAGTTAGCGAGA | 0.12
TCCCTCTAAGTCTACGAGA | 0.343
TCCCGATAAGTTGGAGAGA | 0.175
TCCCTCAAAGTCGCGGAGA | 0.227
TCCCGGGTAGTTGGCGAGA | 0.479
TCCCGCCCAGTAGCTGAGA | 0.41
TCCCGGAGAGTACACGAGA | 0.0942
TCCCAGAGAGTCACGGAGA | 0.234
TCCCGCGTAGTGTTTGAGA | 0.622
TCCCTATAAGTCGGCGAGA | 0.286
TCCCAAGGAGTATCGGAGA | 0.131
TCCCTGACAGTCTGCGAGA | 0.287
TCCCAACGAGTTGGGGAGA | 0.0864
TCCCTACGAGTGCACGAGA | 0.104

Sequence | TetR repression strength
TCCCATGTAGTACCGGAGA | 0.095
TCCCCTAGAGTCGCAGAGA | 0.264
TCCCCGATAGTTTCCGAGA | 0.332
TCCCGCACAGTGACGGAGA | 0.117
TCCCAGCGAGTTTTTGAGA | 0.643
TCCCTATAAGTTTCGGAGA | 0.3
TCCCACGCAGTCGTAGAGA | 0.336
TCCCGGGTAGTGGCAGAGA | 0.238
TCCCATATAGTGTATGAGA | 0.136
TCCCGGGTAGTCGATGAGA | 0.22
TCCCTTTCAGTTTCAGAGA | 0.206
TCCCGCCAAGTTGATGAGA | 0.15
TCCCTACGAGTGCGGGAGA | 0.0755
TCCCGAATAGTATCAGAGA | 0.207
TCCCCAGAAGTCGCTGAGA | 0.192
TCCCGGATAGTGTCAGAGA | 0.0952
TCCCGGTCAGTAAGGGAGA | 0.199
TCCCTTCTAGTTTTAGAGA | 0.512
TCCCTGAGAGTACCTGAGA | 0.301
TCCCTTATAGTGTGGGAGA | 0.0444
TCCCGAGGAGTATAGGAGA | 0.134
TCCCACTTAGTGCGAGAGA | 0.0746
TCCCGCAGAGTGATTGAGA | 0.0754
TCCCCGAGAGTCCAAGAGA | 0.25
TCCCAATTAGTATTGGAGA | 0.321
TCCCGTAAAGTGAACGAGA | 0.109
